Several values for one entry are separate records, joined by “and”; a condition that tells them apart may be missing. Equal values may be shown once. About 7,200 (1.8%) of roughly 410,000 compounds were called active. The shares of active, inactive and inconclusive entries below differ from those in the screen. Calls follow the shape of the dose curve; as a rule, active = well fitted activation curve with a large enough effect; inconclusive = small, poorly fitted or top-dose-only effect, or another doubt; inactive = no such curve, though single readings can be large or run the other way. A potency beside an inconclusive call is a rough fit, not a confirmed value.
Assay: qHTS of TDP-43 Inhibitors; also: nearly all actives have a fitted effect of over 50% in size; as to growth rescue (activation): % of control where 0% means no effect
Conditions: TDP-43 expressing yeast growth rescue, BacTiter-Glo, 24 h; growth rescue (activation): at 46.1 µM (top of the series) unless noted
Outline: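 Galactose-induced TDP-43 yeast, OD600=0.02, compound pinned; 24 hr, 30 deg C; BacTiter-Glo luminescence for growth. Inhibitors of TDP-43 toxicity read as activators.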
Potency is read from the fitted curve at half-maximal effect; tags tell the direction and shape of the fitted curve.

SMILES	Potency	growth rescue (activation)
Cc1ccc(C)c(N2CCN(C(=O)CCCn3ncn4c(cc5occc54)c3=O)CC2)c1	inconclusive: 35.5 µM [activator, single point] and inconclusive: 20 µM [activator, single point]	
CCOC(=O)C1=C(O)CSC1=Nc1ccc(C)cc1	inconclusive: 11.2 µM [activator, partial curve, poor fit]	
COc1ccc(CCN(C)C(=O)c2oc3ccccc3c2C)cc1OC	inconclusive: 7.08 µM [activator, full curve, poor fit]	
CN1C(=O)C2C(c3ccc(N(C)C)cc3)NN(Cc3ccccc3)C2C1=O (configuration not stated)	inconclusive: 12.6 µM [activator, partial curve]	
Cc1ccc(Nc2nc(C)c3c(n2)CC(C)CC3=O)c(C)c1 (configuration not stated)	inconclusive: 17.8 µM [activator, single point]	
c1cc(SC2CCCCC2)cc(-c2nc3cnccn3c2NC2CCCCC2)c1	active: 22.4 µM	
CC(C)c1cc(-c2cc(C(=O)NCc3ccccc3)on2)nc(NC2CCCC2)n1	inconclusive: 12.6 µM [activator, partial curve]	
O=C(Cc1csc(-c2ccccc2)n1)NCc1ccc(F)cc1	inconclusive: 17.8 µM [activator, partial curve]	
O=S(=O)(/C=C/c1ccccc1)NC1CCCCCC1	inconclusive: 3.55 µM [activator, single point]	
COc1ccc(-c2noc(-c3ccccc3C(=O)NCc3ccco3)n2)cc1OC	inconclusive: 3.98 µM [activator, partial curve]	
C=C(C)CSc1nnc2n(C)c(=O)c3c4c(sc3n12)CCC4	inconclusive: 2.51 µM [activator, full curve, poor fit]	
c1ccc(Cn2nnnc2C(c2cccs2)N2CCc3ccccc3C2)cc1 (configuration not stated)	inconclusive: 35.5 µM [activator, single point]	
COC(=O)c1c(NC(=S)Nc2ccc(CC(=O)O)cc2)sc(C)c1C	inconclusive: 10 µM [activator, partial curve]	
CCOC(=O)C(CC)Sc1nnc(COc2ccc(C)cc2)n1-c1ccccc1 (configuration not stated)	inconclusive: 35.5 µM [activator, single point]	
COc1ccc(NC(=O)c2oc3ccccc3c2NC(=O)Cc2ccc(F)cc2)c(OC)c1	inactive	
CCCn1c(SCC(=O)Nc2ccccc2OC)nnc1-c1ccco1	inactive	
CCOC(=O)Cc1csc(N/N=C/c2ccc(Cl)cc2)n1	inconclusive: 2.82 µM [activator, full curve]	
O=C(CC1N=C2c3ccccc3N=C(SCc3ccccc3Cl)N2C1=O)NC1CCCCC1 (configuration not stated)	inconclusive: 35.5 µM [activator, partial curve, poor fit]	
COc1ccc(C(C)NC(=S)NCc2ccc(F)cc2)cc1 (configuration not stated)	inconclusive: 17.8 µM [activator, single point]	
Cc1cc(=O)[nH]c(SCC(=O)N2CCN(c3ccccc3)CC2)n1	inactive	
COCCCNC(=S)NNC(=S)Nc1cccc(Cl)c1	inconclusive: 12.6 µM [activator, partial curve]	
CC(=O)Oc1c(C)c(OC(C)=O)c2c(c1C(C)=O)OC1CC(=O)C(C(C)=O)=C(O)C21C (configuration not stated)	inconclusive: 35.5 µM [activator, single point]	
CC1CCN(C(=O)c2ccc(NC(=O)c3nsc4ccccc34)cc2)CC1	inconclusive: 12.6 µM [activator, partial curve]	

SMILES	Potency	growth rescue (activation)
CCc1ccc(N=c2c([N+](=O)[O-])nn(-c3ccccc3)n2O)cc1	active: 12.6 µM	
Brc1ccccc1C1Nc2cccc3cccc(c23)N1	inconclusive: 22.4 µM [activator, single point]	
Cc1cccc(NC(=O)CSCC(=O)N2CCCc3ccccc32)c1	inconclusive: 12.6 µM [activator, partial curve]	
O=C1c2ccccc2C(c2nnnn2Cc2ccccc2)N1CCc1ccccc1F (configuration not stated)	inconclusive: 20 µM [activator, partial curve, poor fit]	
Cc1cccc(N2CCN(S(=O)(=O)c3c(C)nc4scc(C)n4c3=O)CC2C)c1 (configuration not stated)	inconclusive: 11.2 µM [activator, partial curve]	
Cc1ccc(-n2ncc3c2CCCC3NC(=O)c2ccoc2)cc1C (configuration not stated)	inconclusive: 12.6 µM [activator, partial curve]	
Cc1ccc(CCNC(=O)CN2N=C(c3ccc(C)cc3)CCC2=O)cc1	inconclusive: 35.5 µM [activator, single point]	
COc1ccc(CC(CC(=O)O)C(=O)Nc2ccccc2)cc1 (configuration not stated)	inconclusive: 0.355 µM [activator, full curve, poor fit]	
COCCCNC(=S)Nc1cc2oc3ccccc3c2cc1OC	inconclusive: 25.1 µM [activator, single point]	
O=C(O)CSc1nc2ccccc2nc1N1CCCCC1	active: 20 µM	
S=C1NC(c2ccccc2)=NCN1c1ccccc1	active: 12.6 µM	
O=C(COc1ccc(Cl)cc1)Nc1nnc(-c2ccc3c(c2)CCCC3)o1	inconclusive: 3.55 µM [activator, full curve]	
CCOc1cc2c(cc1OCC)C(c1ccc(F)cc1)NCC2 (configuration not stated)	inactive	
COc1ccc(-c2nc(C)ncc2N=Nc2ccccc2)cc1	inconclusive: 35.5 µM [activator, single point]	
O=C1CC(N2CCN(c3nc4ccccc4s3)CC2)C(=O)N1Cc1cccs1 (configuration not stated)		inconclusive: -65.5% [activator]
COc1cccc(NS(=O)(=O)c2cc(-c3cnc(C4CC4)o3)ccc2C)c1	inconclusive: 12.6 µM [activator, partial curve]	
COc1cc(OC)cc(C(=O)NCCCCc2ccccc2)c1	inconclusive: 10 µM [activator, single point]	
COc1cccc(C2=CC(=O)C[C@H](c3ccc(F)cc3)C2)c1	inconclusive: 28.2 µM [activator, single point]	
O=C(NC1CC(=O)N(c2ccc(Cl)cc2)C1)C1CCCCC1 (configuration not stated)	inactive	
O=C(OCc1ccc(Cl)c(Cl)c1)c1cccnc1Cl	inconclusive: 11.2 µM [activator, single point]	
Cc1nn(Cc2ccc([N+](=O)[O-])cc2)c(=O)n1-c1c(F)cccc1F	inconclusive: 35.5 µM [activator, partial curve]	
N=C1C(c2nc3ccccc3s2)=C(O)CN1NC(=O)c1ccccc1[N+](=O)[O-]	inconclusive: 1 µM [activator, full curve, poor fit]	
O=C(Nc1ccccc1)OCCOc1ccccc1Br	inconclusive: 2.24 µM [activator, partial curve]	

SMILES	Potency	growth rescue (activation)
O=C(N/N=C/c1cc(O)ccc1Br)c1cccnc1	inconclusive: 5.62 µM [activator, partial curve]	
CC(C)(C)c1ccc(CC(=O)N2CCC2(C)C(=O)Nc2ccc(F)cc2F)cc1 (configuration not stated)	inconclusive: 10 µM [activator, partial curve]	
O=C(Nc1ccc(Br)c(Cl)c1)C1CC1	inconclusive: 6.31 µM [activator, single point]	
O=C(NCCc1ccccc1)c1ccc2nc(-c3ccco3)c(-c3ccco3)nc2c1	inconclusive: 31.6 µM [activator, single point]	
O=C(Nc1ccccc1N1CCOCC1)c1cc2c(s1)CCCCC2	active: 7.94 µM	
O=C(CCn1c(=O)c2cccn2c2cccnc21)NCc1cccc(Br)c1	inactive	
N#CCCN(C(=O)Nc1ccc(Cl)c(Cl)c1)C1CCCCC1	inconclusive: 35.5 µM [activator, partial curve]	
COc1cc2c(cc1OC)C(c1ccc([N+](=O)[O-])cc1)N(C(C)=O)CC2 (configuration not stated)	inactive	
N#Cc1cc(Cl)c(NCC2CCCO2)cc1C#N (configuration not stated)	inconclusive: 3.16 µM [activator, single point]	
CCn1cc(C(=O)N2CCN(c3ccccc3OC)CC2)c(=O)c2cc(S(=O)(=O)N3CCCCC3)ccc21	inactive	
CCn1c(=NC(=O)CSC(C)=O)sc2cc(F)ccc21	inconclusive: 12.6 µM [activator, partial curve]	
O=C1c2[nH]nc(-c3ccccc3O)c2C(c2cccc(Cl)c2)N1CC1CCCO1 (configuration not stated)	inactive	
O=C(NCCC1=CCCCC1)Nc1ccc2nsnc2c1	inconclusive: 3.16 µM [activator, single point]	
CCOc1ccc(Sc2cc(C(=O)NCCc3ccc(OC)c(OC)c3)c3ccccc3n2)cc1	inconclusive: 6.31 µM [activator, single point]	
Cc1ccc(S(=O)(=O)NCC(=O)NNC(=O)c2ccccc2Cl)cc1C	inactive	
CCOC(=O)c1[nH]c(C)c(C(=O)Nc2ccccc2C)c1C	inconclusive: 12.6 µM [activator, single point]	
CCC(C)NC(=O)C(Cc1ccccc1)NS(=O)(=O)c1cccc2nsnc12 (configuration not stated)	inconclusive: 2.82 µM [activator, full curve, poor fit]	
Cc1ccc(S(=O)(=O)N2CCC(C(=O)N3CCCCCCC3)CC2)cc1C	inconclusive: 35.5 µM [activator, single point]	
NC(=O)NC(c1ccccc1)c1ccccc1F (configuration not stated)	inconclusive: 17.8 µM [activator, single point]	
Cc1ccccc1NC(=O)c1cc2c(C)nc3ccccc3c2o1	inconclusive: 3.98 µM [activator, full curve]	
CS(=O)c1ccccc1-c1nc(-c2cccc(Cl)c2)no1 (configuration not stated)	active: 12.6 µM	
